# Data from the supplement of paper PMC8728848.
# The list shows a part of the results.
# B1: RS2L (Ralstonia solanacearum), B5RXL5_RALSO (protein)
# chain: MAQQGVFTLPANTSFGVTAFANAANTQTIQVLVDNVVKATFTGSGTSDKLLGSQVLNSGSGAIKIQVSVNGKPSDLVSNQTILANKLNFAMVGSEDGTDNDYNDGIAVLNWPLG
# Experiments:
# Test in all cases: glycan array binding signal (z-score within array); higher = stronger binding
# Conditions in all cases: glycan notation: IUPAC condensed, linker removed
# [1] = molecular target: Neu5Ac(a2-3)Gal(b1-4)GlcNAc(b1-3)Gal
# Summary of the method: (§1)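 The binding signal is a Z-score computed within each array. Data were drawn from 3228 arrays in the Consortium for Functional Glycomics database, restricted to those with a known protein sequence. Scores were averaged over arrays of the same protein sequence at different concentrations or buffers, and over linkers, and negative values can be taken as non-binding.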
# [2] = molecular target: Neu5Ac(a2-3)Gal(b1-4)GlcNAc(b1-3)Gal(b1-3)GlcNAc
# Summary of the method: as §1
# [3] = molecular target: Neu5Ac(a2-3)Gal(b1-4)GlcNAc(b1-3)Gal(b1-4)GlcNAc
# Summary of the method: as §1
# [4] = molecular target: Neu5Ac(a2-3)Gal(b1-4)GlcNAc(b1-3)Gal(b1-4)GlcNAc(b1-3)Gal(b1-4)GlcNAc
# Summary of the method: as §1
# [5] = molecular target: Neu5Ac(a2-3)Gal(b1-4)GlcNAc(b1-3)Gal(b1-4)[Fuc(a1-3)]GlcNAc
# Summary of the method: as §1
# [6] = molecular target: Neu5Ac(a2-3)Gal(b1-4)GlcNAc(b1-3)GalNAc
# Summary of the method: as §1
# [7] = molecular target: Neu5Ac(a2-3)Gal(b1-4)GlcNAc(b1-6)[Gal(b1-3)]GalNAc
# Summary of the method: as §1
# [8] = molecular target: Neu5Ac(a2-3)Gal(b1-4)GlcNAc(b1-6)[Neu5Ac(a2-3)Gal(b1-3)]GalNAc
# Summary of the method: as §1
# [9] = molecular target: Neu5Ac(a2-3)Gal(b1-4)GlcNAc6S
# Summary of the method: as §1
# [10] = molecular target: Neu5Ac(a2-3)Gal(b1-4)[Fuc(a1-3)]GlcNAc
# Summary of the method: as §1
# [11] = molecular target: Neu5Ac(a2-3)Gal(b1-4)[Fuc(a1-3)]GlcNAc(b1-3)Gal
# Summary of the method: as §1
# [12] = molecular target: Neu5Ac(a2-3)Gal(b1-4)[Fuc(a1-3)]GlcNAc(b1-3)Gal(b1-4)GlcNAc
# Summary of the method: as §1
# [13] = molecular target: Neu5Ac(a2-3)Gal(b1-4)[Fuc(a1-3)]GlcNAc(b1-3)Gal(b1-4)[Fuc(a1-3)]GlcNAc(b1-3)Gal(b1-4)[Fuc(a1-3)]GlcNAc
# Summary of the method: as §1
# [14] = molecular target: Neu5Ac(a2-3)Gal(b1-4)[Fuc(a1-3)]GlcNAc(b1-3)GalNAc
# Summary of the method: as §1
# [15] = molecular target: Neu5Ac(a2-3)Gal(b1-4)[Fuc(a1-3)]GlcNAc(b1-6)[Gal(b1-3)]GalNAc
# Summary of the method: as §1
# [16] = molecular target: Neu5Ac(a2-3)Gal(b1-4)[Fuc(a1-3)]GlcNAc6S
# Summary of the method: as §1
# [17] = molecular target: Neu5Ac(a2-3)Gal6S(b1-4)GlcNAc
# Summary of the method: as §1
# [18] = molecular target: Neu5Ac(a2-3)Gal6S(b1-4)[Fuc(a1-3)]GlcNAc
# Summary of the method: as §1
# Neu5Ac(a2-3)GalNAc = molecular target: Neu5Ac(a2-3)GalNAc
# Summary of the method: as §1
# [19] = molecular target: Neu5Ac(a2-3)GalNAc(b1-4)GlcNAc
# Summary of the method: as §1
# [20] = molecular target: Neu5Ac(a2-3)[GalNAc(b1-4)]Gal(b1-4)Glc
# Summary of the method: as §1
# [21] = molecular target: Neu5Ac(a2-3)[GalNAc(b1-4)]Gal(b1-4)GlcNAc
# Summary of the method: as §1
# [22] = molecular target: Neu5Ac(a2-3)[GalNAc(b1-4)]Gal(b1-4)GlcNAc(b1-3)GalNAc
# Summary of the method: as §1
# [23] = molecular target: Neu5Ac(a2-3)[Neu5Ac(a2-6)]GalNAc
# Summary of the method: as §1
# Neu5Ac(a2-6)Gal = molecular target: Neu5Ac(a2-6)Gal
# Summary of the method: as §1
# [24] = molecular target: Neu5Ac(a2-6)Gal(b1-3)GlcNAc(b1-3)[Gal(b1-4)GlcNAc(b1-6)]Gal(b1-4)Glc
# Summary of the method: as §1
# Neu5Ac(a2-6)Gal(b1-4)Glc = molecular target: Neu5Ac(a2-6)Gal(b1-4)Glc
# Summary of the method: as §1
# [25] = molecular target: Neu5Ac(a2-6)Gal(b1-4)GlcNAc
# Summary of the method: as §1
# [26] = molecular target: Neu5Ac(a2-6)Gal(b1-4)GlcNAc(b1-2)Man(a1-3)Man(b1-4)GlcNAc(b1-4)GlcNAc
# Summary of the method: as §1
# [27] = molecular target: Neu5Ac(a2-6)Gal(b1-4)GlcNAc(b1-2)Man(a1-3)[Gal(b1-4)GlcNAc(b1-2)Man(a1-6)]Man(b1-4)GlcNAc(b1-4)GlcNAc
# Summary of the method: as §1
# [28] = molecular target: Neu5Ac(a2-6)Gal(b1-4)GlcNAc(b1-2)Man(a1-3)[GlcNAc(b1-2)Man(a1-6)]Man(b1-4)GlcNAc(b1-4)GlcNAc
# Summary of the method: as §1
# [29] = molecular target: Neu5Ac(a2-6)Gal(b1-4)GlcNAc(b1-2)Man(a1-3)[GlcNAc(b1-2)Man(b1-4)GlcNAc(b1-2)Man(a1-6)]Man(b1-4)GlcNAc(b1-4)GlcNAc
# Summary of the method: as §1
# [30] = molecular target: Neu5Ac(a2-6)Gal(b1-4)GlcNAc(b1-2)Man(a1-3)[Man(a1-6)]Man(b1-4)GlcNAc(b1-4)GlcNAc
# Summary of the method: as §1
# [31] = molecular target: Neu5Ac(a2-6)Gal(b1-4)GlcNAc(b1-2)Man(a1-3)[Neu5Ac(a2-6)Gal(b1-4)GlcNAc(b1-2)Man(a1-6)]Man(b1-4)GlcNAc(b1-4)GlcNAc
# Summary of the method: as §1
# [32] = molecular target: Neu5Ac(a2-6)Gal(b1-4)GlcNAc(b1-2)Man(a1-6)Man(b1-4)GlcNAc(b1-4)GlcNAc
# Summary of the method: as §1
binder,measurement,setting,value
B1,glycan array binding signal (z-score),[1],-0.219
same,glycan array binding signal (z-score),[2],-0.235
same,glycan array binding signal (z-score),[3],-0.247
same,glycan array binding signal (z-score),[4],-0.242
same,glycan array binding signal (z-score),[5],-0.245
same,glycan array binding signal (z-score),[6],-0.244
same,glycan array binding signal (z-score),[7],-0.25
same,glycan array binding signal (z-score),[8],-0.254
same,glycan array binding signal (z-score),[9],-0.24
same,glycan array binding signal (z-score),[10],-0.232
same,glycan array binding signal (z-score),[11],-0.253
same,glycan array binding signal (z-score),[12],-0.22
same,glycan array binding signal (z-score),[13],-0.12
same,glycan array binding signal (z-score),[14],-0.213
same,glycan array binding signal (z-score),[15],-0.242
same,glycan array binding signal (z-score),[16],-0.244
same,glycan array binding signal (z-score),[17],-0.24
same,glycan array binding signal (z-score),[18],-0.24
same,glycan array binding signal (z-score),Neu5Ac(a2-3)GalNAc,-0.239
same,glycan array binding signal (z-score),[19],-0.237
same,glycan array binding signal (z-score),[20],-0.245
same,glycan array binding signal (z-score),[21],-0.243
same,glycan array binding signal (z-score),[22],-0.248
same,glycan array binding signal (z-score),[23],-0.246
same,glycan array binding signal (z-score),Neu5Ac(a2-6)Gal,-0.246
same,glycan array binding signal (z-score),[24],-0.237
same,glycan array binding signal (z-score),Neu5Ac(a2-6)Gal(b1-4)Glc,-0.246
same,glycan array binding signal (z-score),[25],-0.24
same,glycan array binding signal (z-score),[26],-0.245
same,glycan array binding signal (z-score),[27],-0.251
same,glycan array binding signal (z-score),[28],-0.184
same,glycan array binding signal (z-score),[29],-0.244
same,glycan array binding signal (z-score),[30],2.49
same,glycan array binding signal (z-score),[31],-0.246
same,glycan array binding signal (z-score),[32],-0.227
